Screen size: about 310,000 compounds; about 2,200 (0.71%) showed an effect of 50% or more. The effect is printed as a negative number. This is one part of the list.
molecular target: human ether-à-go-go-related gene (hERG) potassium channel (human, UniProt Q12809); assay: primary screen, population patch clamp on CHO cells stably expressing hERG
Sequence (Q12809 whole entry, looked up): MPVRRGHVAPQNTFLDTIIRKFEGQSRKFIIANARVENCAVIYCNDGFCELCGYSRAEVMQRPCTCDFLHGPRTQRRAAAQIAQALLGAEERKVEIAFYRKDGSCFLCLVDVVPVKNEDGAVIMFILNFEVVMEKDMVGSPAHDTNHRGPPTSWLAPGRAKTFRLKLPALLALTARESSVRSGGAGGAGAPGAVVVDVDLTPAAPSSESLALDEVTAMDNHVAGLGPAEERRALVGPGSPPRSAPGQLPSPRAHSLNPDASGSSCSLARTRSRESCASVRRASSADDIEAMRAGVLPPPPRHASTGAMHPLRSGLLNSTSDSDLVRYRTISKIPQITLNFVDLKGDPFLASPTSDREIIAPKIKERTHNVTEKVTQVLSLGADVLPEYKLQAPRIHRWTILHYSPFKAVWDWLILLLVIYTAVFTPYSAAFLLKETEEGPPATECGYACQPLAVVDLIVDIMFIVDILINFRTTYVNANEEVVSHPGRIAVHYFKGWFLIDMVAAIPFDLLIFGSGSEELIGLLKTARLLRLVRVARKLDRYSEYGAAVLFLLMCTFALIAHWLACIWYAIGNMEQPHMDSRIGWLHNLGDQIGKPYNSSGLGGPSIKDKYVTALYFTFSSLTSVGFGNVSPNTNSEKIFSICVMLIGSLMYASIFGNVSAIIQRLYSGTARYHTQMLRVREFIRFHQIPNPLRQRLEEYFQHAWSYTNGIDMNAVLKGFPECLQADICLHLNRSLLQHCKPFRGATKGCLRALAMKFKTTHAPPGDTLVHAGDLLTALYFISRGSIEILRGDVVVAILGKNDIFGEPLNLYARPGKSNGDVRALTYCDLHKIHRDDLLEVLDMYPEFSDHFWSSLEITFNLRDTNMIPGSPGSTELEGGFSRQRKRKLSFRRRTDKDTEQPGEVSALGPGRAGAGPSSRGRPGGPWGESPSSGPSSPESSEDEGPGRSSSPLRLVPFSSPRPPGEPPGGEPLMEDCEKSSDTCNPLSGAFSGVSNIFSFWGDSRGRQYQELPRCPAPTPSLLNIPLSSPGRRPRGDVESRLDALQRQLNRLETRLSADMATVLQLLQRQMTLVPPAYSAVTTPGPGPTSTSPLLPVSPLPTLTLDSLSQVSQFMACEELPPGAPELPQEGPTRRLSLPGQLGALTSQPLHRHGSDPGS

SMILES	hERG current change (%, negative = inhibition) at 1uM [%]
CCc1ccc(-c2cc(C)no2)cc1S(=O)(=O)Nc1ccccn1	15.5
Cc1nn2c(NCCCn3ccnc3)cc(C(C)C)nc2c1-c1ccccc1	8.47
Cn1c(SCC(=O)c2cccs2)nnc1-c1ccco1	15.2
CNc1c(NC(=O)C2CCC(C)CC2)c(=O)oc2ccccc12 (centres unmarked)	15.4
CCOc1cccc2sc(N(CCCN(C)C)C(=O)Cc3ccccc3)nc12.Cl	-83.7
O=C(Nc1ccc(S(=O)(=O)NCc2ccco2)cc1)c1cccc(F)c1	1.31
O=C(CN1C(=O)c2ccccc2C1=O)Nc1ccccc1C(=O)N1CCCC1	8.1
Cc1ccc(-c2nn3c(C)nnc3s2)cc1NC(=O)c1ccc(-c2ccc(Cl)cc2Cl)o1	1.09
CCOc1ccccc1NC(=O)c1ccc2ccccc2c1	14.2
CNC(=S)N1CC2CC(C1)c1cccc(=O)n1C2 (centres unmarked)	10.7
COc1ccc(CNC(=O)[C@H](C)NC(=O)C2CCN(S(=O)(=O)c3ccc(F)cc3)CC2)cc1	14.3
CCCC1S/C(=N/N=C/c2ccc(OC)cc2)N(Cc2ccccc2)C1=O (centres unmarked)	16.6
COCCn1c(=O)[nH]c2cc(C(=O)N3CCN(c4cccc(Cl)c4)CC3)ccc2c1=O	-7.95
CCN(CC)CCC(c1cc(OC)c(OC)c(OC)c1)c1c(OC)cc(OC)c2ccc(=O)oc12 (centres unmarked)	-25.1
Cc1cn(-c2cc(C(=O)Nc3ccc(C)c(NC(=O)C(=O)c4c[nH]c5ccccc45)c3)cc(C(F)(F)F)c2)cn1	12.3
COc1ccc(C2=NN(C(=O)c3ccccc3)C(c3cccc([N+](=O)[O-])c3)C2)cc1 (centres unmarked)	-1.01
O=C(NCCn1cccc1)c1cccc2ccccc12	8.35
CCOc1ccc(C2CC(c3ccc(CC)cc3)n3nc(N)nc3N2)cc1 (centres unmarked)	5.81
CCCc1c(C(=O)N/N=C/c2cccnc2)nnn1-c1nonc1N	16.6
O=C(Nc1ccc(S(=O)(=O)N2CCc3ccccc32)cc1)c1ccco1	7.56
CC1CCCC(NC(=O)CSC2=Nc3ccccc3C3CC=NN23)C1C (centres unmarked)	6.04
COc1ccccc1C1CCCN1Cc1nc(-c2ccc(C)s2)oc1C (centres unmarked)	3.47
COc1ccc(CNC(=O)C2CCN(S(=O)(=O)N3CCCC3)CC2)c(OC)c1	7.25

SMILES	hERG current change (%, negative = inhibition) at 1uM [%]
CCn1c(C)c(Br)c(=O)c(C(=O)OC)c1-c1ccc(Cl)cc1	21
O=C(NCc1ccc2c(c1)OCO2)C1CCCN1C(=O)Nc1cccc(Cl)c1 (centres unmarked)	-5.85
O=C(Cc1cccc(C(F)(F)F)c1)Nc1ccc(S(=O)(=O)N2CCCC2)cc1	13
COc1ccc(C(CNC(=O)COc2ccc(Cl)c(C)c2)N2CCCCC2)cc1 (centres unmarked)	10.4
COc1ccc(-c2cn3c(C)c(C(=O)N4CCCc5ccccc54)sc3n2)cc1	1.32
CN(CCC(=O)Nc1ccc2c(c1)OCO2)Cc1ccccc1.Cl	5.45
COC(=O)C1(C)NC(c2cccs2)C2C(=O)N(c3ccccc3F)C(=O)C21 (centres unmarked)	1.21
COc1ccccc1C(OC(=O)c1cccs1)C(=O)NCc1ccco1 (centres unmarked)	10
Cc1cc(C)n(-c2nc3ccccc3nc2NCCc2ccccc2)n1	9.53
COc1ccc2oc(C(=O)Nc3ccc(N4CCOCC4)cc3)c(C)c2c1	3.18
CC(C)CCC(=O)N1CCC(N2CCC(C(=O)NCc3ccccn3)CC2)CC1	10.1
CC(C)Oc1ccccc1/C=N/NC(=O)C1CC1	14.2
Cc1occc(=O)c1OCc1c(F)cccc1Cl	7.18
COc1ccc(CCNC(=O)CSc2ccccn2)cc1OC	15.3
CCCN(C(=O)Cn1c(C(F)(F)F)nc2ccccc21)C1CCS(=O)(=O)C1 (centres unmarked)	-0.749
COCCn1c(Sc2ccccc2)nc2c1c(=O)[nH]c(=O)n2C	6.26
CCS(=O)(=O)c1nc2ccccc2n1CC(=O)N1CCOCC1	6.39
CC(C)NC(=O)COc1cccc2ccccc12	6.11
CCOC(=O)N1CCN(C(=O)c2cc3ccccc3o2)CC1	18.5
Cc1cccc(C)c1NC(=S)N/N=C/c1ccc(C(=O)O)cc1	8.3
OC(CNCc1ccccn1)c1ccccc1 (centres unmarked)	5.57
COc1ccc(CCNC(=O)CC2SC(=NCCC(C)C)NC2=O)cc1OC (centres unmarked)	-1.71
COc1ccc(C2/C=C\CN(CC3CC3)CC(=O)N2Cc2ccc(F)cc2)cc1 (centres unmarked)	8.56

SMILES	hERG current change (%, negative = inhibition) at 1uM [%]
O=C(O)C(=O)O.c1ccc(CNc2nc(CN3CCOCC3)nc3scc(-c4ccccc4)c23)cc1	1.13
CC1=C(C(=O)OCC2CCCO2)C(c2ccncc2)C2=C(CCCC2=O)N1 (centres unmarked)	25.4
O=S(=O)(Nc1cccnc1Cl)c1ccc(F)cc1	12.7
CCOC(=O)N/N=C(\C)c1ccc(C)c([N+](=O)[O-])c1	5.33
COC(=O)C(CCSC)NC(=O)c1cn(-c2ccc(OC)cc2)c(=O)c2ccccc12 (centres unmarked)	19.2
CCOc1ccc(S(=O)(=O)N2CCN(C(=O)Cc3ccc(S(=O)(=O)N4CCOCC4)s3)CC2)cc1	5.95
c1ccc(Sc2cnc3ccccc3n2)cc1	13.9
COc1ccc(C2C(C(=O)c3sc(C)nc3C)=C(O)C(=O)N2CCCn2ccnc2)cc1 (centres unmarked)	11.9
CN(C)c1cc(=O)n2c(n1)SCCC2	6.86
Cc1ccc(NC(=O)C2CCN(S(=O)(=O)c3ccc4c(c3)oc(=O)n4C)CC2)cc1	16.7
CCOC(CNc1ncnc2c1cnn2C)OCC	17
COc1cccc(CN(C)C(=O)C(Cc2ccccc2)NC(=O)c2ccccc2)c1OC (centres unmarked)	5.29
Cc1ccc(CN2CCC(C(=O)Nc3cccc(-c4cccc(F)c4)c3)CC2)o1	-28.7
CCc1ccc(NC2CC(=O)N(c3ccc(OC)cc3OC)C2=O)cc1 (centres unmarked)	8.18
CC(=O)Nc1ccc(SCC(=O)c2cc(C)n(Cc3cccs3)c2C)cc1	6.82
Cc1cc(-n2c(C)c3c(C)nnc(C)c3c2C)ccc1N	13.9
NC(=S)N/N=C/C=C/c1ccccc1	5.47
CCOc1cc(/C=N/NC(=O)C(OC)c2ccccc2)ccc1O (centres unmarked)	12.4
Cn1c(=O)cc(SCC(=O)NCCCN2CCOCC2)c2ccccc21	-3.66
O=C(CSCc1ccc(Br)cc1)Nc1ccc(S(=O)(=O)N2CCOCC2)cc1	11.5
O=C(O)Cc1nc2nc3c(c(=O)n2[nH]1)CCCC3	17.8
Cc1ccc(NC(=O)CCC(=O)OCC(F)(F)C(F)F)cc1	17.3
CC(C)[C@H](NC(=O)N1CCn2c1nc1ccccc12)C(=O)N[C@@H](Cc1ccccc1)C(=O)O	11

SMILES	hERG current change (%, negative = inhibition) at 1uM [%]
CC(NC(=O)c1ccc(Br)o1)c1ccccc1 (centres unmarked)	3.01
COc1ccccc1CNc1ccc2nnc(CCNC(=O)c3ccc(C)cc3)n2n1	2.15
CCc1cccc(NC(=O)c2ccc(NS(=O)(=O)c3c(C)noc3C)cc2)c1	-6.03
Cc1c(NS(=O)(=O)c2ccccc2F)c(=O)n(-c2ccccc2)n1C	8.14
COc1c2c(cc3ccc(=O)oc13)CCO2	13.8
O=C(CCN1C(=O)/C(=C/c2ccccc2)SC1=S)NC1CCS(=O)(=O)C1 (centres unmarked)	9.25
Cc1cc(C)nc(NS(=O)(=O)c2ccc(N/C=C/C(=O)c3ccc(Cl)c(Cl)c3)cc2)n1	18.7
Cc1cccc(OCCCC(=O)NC(C)c2ccccc2)c1 (centres unmarked)	9.86
Cc1ccc(S(=O)(=O)CCc2nnc(N)s2)cc1	16.5
O=C(CCSc1nc(-c2ccc3c(c2)OCO3)cc(C(F)(F)F)n1)NCc1ccco1	8.5
OC(CN1CCOCC1)CN1CCOCC1	7.81
Cc1ccc(C(=O)N2CCN3C(=O)c4ccccc4C23c2ccccc2)cc1 (centres unmarked)	11.2
COc1ccc2c(c1OC)C[N+]1([O-])CCc3cc4c(cc3C1C2)OCO4 (centres unmarked)	7.22
Cc1cnc(C(=O)Nc2ccc(-n3cnnn3)cc2)cn1	6.41
Cc1ccsc1/C=N\NC(=O)CC(=O)NCc1ccccc1	13.8
CC(=O)Nc1ccccc1C(=O)N1CCN(Cc2ccccc2)CC1	9.12
O=c1c2ccccc2oc2ccc(NCCCN3CCOCC3)cc12	-3.35
COc1cccc(-c2ccc(=O)n(CC(=O)Nc3ccc(C(=O)N4CCCC4)cc3)n2)c1	0.542
Cc1cccc2c(=O)c(C(=O)N3CCCCCC3)c[nH]c12	1.15
CCc1ccc(C(=O)NNC(=O)c2n[nH]c(=O)c3ccccc23)cc1	12.7

Source: PMC4336329 (PLoS ONE, 2015)
